# Measured values published in PubChem BioAssay AID435005 (Broad Institute, 2010).
# Out of some 300,000 compounds screened, about 2,400 (0.8%) were called active. This list was built around the results that the source calls inconclusive (neither active nor inactive); the mix of calls is not that of the screen.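 Rule for the calls: active = Every replicate reaches about 75%, or at least half do and their mean reaches it too (limit read from the data); inconclusive = At least half of replicates reach the limit but their mean does not; inactive = Under half of replicates reach the limit.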
# Assay: inhibitors of cytokine-induced beta cell apoptosis, primary screen, luminescence (AID 435005);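 note: 0% = cytokine-treated negative control wells and 100% = positive control rescue; higher means more ATP so stronger rescue from cytokine killing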
# Conditions: INS-1E cytokine-induced death, ATP luminescence, 48 h; hits give high values; percent of positive-control rescue, neutral wells zero; concentration not given here
row,SMILES,protection from apoptosis
1,CCCCCCCCSc1nnc(CSc2nc3nc(C)cc(C)n3n2)o1,inconclusive: 62.5%
2,CCOc1ccc(OCC)c(S(=O)(=O)NCCOC23CC4CC(CC(C4)C2)C3)c1,inconclusive: 71.9%
3,Cc1ccsc1/C=N/NC(=O)C1C(=O)NCC1c1ccccc1 (stereo not drawn),inactive: 4.06%
4,Cc1ccc(NC(=O)C(C)Sc2nnc(C)n2C2CC2)cc1S(=O)(=O)N1CCOCC1 (stereo not drawn),inconclusive: 51%
5,O=C(COC(=O)Cn1cnc2ccccc2c1=O)Nc1ccc2c(c1)OCO2,inconclusive: 44.4%
6,N#CC(C#N)=C1C=CC=CN1/C(=C\c1ccco1)C(=O)c1ccccc1,inconclusive: 67.7%
7,COc1ccc(N(C)S(=O)(=O)c2cccc(C(=O)Nc3nc(C)c(C(C)=O)s3)c2)cc1,inconclusive: 74.1%
8,CN(C)C(=O)c1ccc(NC(=O)c2cccc(S(=O)(=O)N3CCCCCC3)c2)cc1,inconclusive: 52%
9,Cc1cccc(NC(=O)CSc2nc(C)c(CC(=O)c3ccc(Br)cc3)c(C)c2C#N)c1C,inconclusive: 74.3%
10,Cc1cc(C)cc(OCCCn2ccnc2)c1,inconclusive: 74.1%
11,N#Cc1ccc(C(=O)Nc2nc(-c3cccs3)c(C(=O)C(F)(F)F)s2)cc1,inconclusive: 66.4%
12,CN(CC(=O)NCCCc1ccccc1)Cc1ccc(Br)cc1,inactive: -17.5%
13,O=C(N/N=C/c1cccnc1)c1ccccc1NS(=O)(=O)c1cccs1,inconclusive: 50.4%
14,Cc1nonc1NC(=O)CSc1nnnn1-c1ccccc1,inactive: -7.72%
15,COc1ccccc1NCC(=O)N1CCN(S(=O)(=O)c2ccccc2)CC1,inconclusive: 48.2%
16,CCn1c(-c2ccccc2)c(C(=O)CCl)c2ccccc21,inconclusive: 69.1%
17,C=CCNCCOCCOc1ccc(C)cc1Br,inactive: -3.82%
18,O=C(Nc1ccc(Cc2ccncc2)cc1)c1ccc([N+](=O)[O-])o1,inconclusive: 73.7%
19,Cc1ccc(NS(=O)(=O)c2cc([N+](=O)[O-])ccc2NNC(=S)Nc2cc(C)ccc2C)c(C)c1,inconclusive: 74.4%
20,CN(C)c1ccc(/C=C(\C#N)C(=O)OCC(=O)N(C)C2CCS(=O)(=O)C2)cc1 (stereo not drawn),inconclusive: 54.8%
21,COc1ccc(O)c(/C=N/NC(=O)c2ccc(CSc3nc(C)cc(C)n3)cc2)c1,inconclusive: 71.2%
22,CCOCCCNC(=O)c1c[nH]c2cc(OC)ccc2c1=O,inconclusive: 65.6%

row,SMILES,protection from apoptosis
1,CC1CCN(C(=O)CCNS(=O)(=O)c2ccc(Br)cc2)CC1,inconclusive: 52%
2,COc1ccc2nc(/C(C#N)=C\c3ccc(Oc4ccc([N+](=O)[O-])cn4)cc3)[nH]c2c1,inconclusive: 72.9%
3,O=C(NC1CCCCC1)c1cc2ccccc2cc1O,inactive: 10.1%
4,COc1ccc(-n2ncc3c(NC(C)C)ncnc32)cc1,inactive: -6.36%
5,CCN(CC)S(=O)(=O)c1cccc(NC(=O)c2cc(-c3cccs3)nn2-c2ccccc2)c1,inconclusive: 56.2%
6,CCOC(=O)C(NCCc1ccc(F)cc1)(NC(=O)CC)C(F)(F)F (stereo not drawn),inconclusive: 39.8%
7,CCN(CC)CCCNC(=O)c1ccc(S(=O)(=O)Nc2ccc(C)c(C)c2)cc1,inactive: -0.835%
8,C=CCn1c(SCc2ccc(C(=O)O)cc2)nc2sc(C)c(C)c2c1=O,inactive: -0.658%
9,O=C(CN1C(=O)c2cccc([N+](=O)[O-])c2C1=O)NCc1ccccc1,inactive: -8.86%
10,Clc1ccc(-c2[nH]ncc2N=Nc2ccccc2)cc1,inconclusive: 69.3%
11,CN1/C(=C\C(=O)c2ccco2)C(C)(C)c2ccccc21,active: 99.3%
12,O=C(N/N=C/c1ccccc1O)c1cccc(C(F)(F)F)c1,inconclusive: 47.8%
13,Cc1cc(C)c(OCC(O)CNC(C)(C)C)c(C)c1 (stereo not drawn),inconclusive: 37.8%
14,CCOC(=O)c1c(N)sc(C(=O)OCCOC)c1C,inactive: 2.05%
15,O=C(N/N=C/c1ccc(O)cc1O)c1ccc(NC(=O)C2CCCCC2)cc1,inconclusive: 73.3%
16,CCOC(=O)c1c(NC(=O)C2COc3ccccc3O2)sc2c1CCN(Cc1ccccc1)C2 (stereo not drawn),inactive: 21.8%
17,COC(=O)N1C/C=C\C(c2ccc(OC)cc2)N(Cc2ccc(F)cc2)C(=O)C1 (stereo not drawn),inactive: -9.2%
18,CCCCNc1c(-c2ccc(SC3CCCCC3)cc2)nc2ccccn12,inconclusive: 74.3%
19,O=C(Nc1ccc([N+](=O)[O-])cc1)Nc1nc(-c2ccc(Cl)s2)cs1,active: 129%
20,COc1ccc2nc3cc(Cl)ccc3c(Nc3cc(C(C)C)c(O)cc3C)c2c1,active: 114%
21,C=CCN(CC=C)CC(O)Cn1c2ccccc2c2ccccc21 (stereo not drawn),inconclusive: 45.5%
22,CC(CCc1ccccc1)NC(=O)CCNS(=O)(=O)c1ccccc1C(F)(F)F (stereo not drawn),inactive: -2.84%

row,SMILES,protection from apoptosis
1,O=c1cc(CSc2ccc(Cl)cc2)nc(-c2ccccn2)[nH]1,active: 79.7%
2,N=c1c2c(-c3ccccc3)c(-c3ccccc3)n(Cc3ccco3)c2ncn1CCCN1CCOCC1,inconclusive: 57%
3,O=C(c1ccco1)N1N=C(c2ccc(Br)cc2)CC1c1ccco1 (stereo not drawn),inconclusive: 63.5%
4,CCC(=O)c1cn(CC(=O)Nc2cc(C)ccc2C)c2ccccc12,inactive: -2.08%
5,C=CCN1C(=O)N/C(=C/c2ccc(N3CCOCC3)o2)C1=O,active: 109%
6,N#Cc1c(N2CCCCC2)nc(N2CCCCC2)c2c1CCN(Cc1ccccc1)C2,inconclusive: 74%
7,O=C(Nc1ccc(Cl)cc1)Nc1nnc(CSCc2ccc(Cl)cc2)s1,inconclusive: 69.1%
8,COc1ccc(O)c(/C=N/NC(=S)Nc2cccnc2)c1,active: 75.6%
9,CCN(CC)CCCN(C(=O)c1ccco1)c1nc(-c2ccc(Cl)cc2)cs1,inactive: 17.4%
10,O=C(NNC(=O)c1cccnc1SCc1cccc([N+](=O)[O-])c1)c1ccc(F)cc1,inconclusive: 71.8%
11,Cc1nn(-c2ccccc2)c(C)c1NC(=O)COc1ccc(Br)cc1Cl,inconclusive: 53.6%
12,O=C(CN1c2ccccc2Sc2ccccc21)NNC(=O)Nc1cccc(Cl)c1,inconclusive: 34.8%
13,Cc1ccc(NC(=O)CCC(=O)N/N=C/c2ccc([N+](=O)[O-])o2)cc1C,inconclusive: 73.6%
14,Cc1nc(NCCc2ccc(S(N)(=O)=O)cc2)c2c(C)c(C)sc2n1,inconclusive: 74.2%
15,CC(=O)c1ccc(NC(=S)NC(C)c2ccc(Cl)cc2Cl)cc1 (stereo not drawn),inconclusive: 68.7%
16,Cc1occc1C(=O)N1CCCC(N2CCN(c3cccc(C(F)(F)F)c3)CC2)C1 (stereo not drawn),inconclusive: 44.2%
17,CCOC(=O)C(C)/C(C)=N/NC(=O)c1cc2ccccc2cc1O (stereo not drawn),inconclusive: 73%
18,CCC1=NN(C(=O)c2cccc(Br)c2)C(O)(c2ccc(Br)cc2)C1 (stereo not drawn),inconclusive: 74%
19,COc1ccc(Cn2c(SCc3ccccc3C)nc3cc(OC)c(OC)cc3c2=N)cc1,active: 108%
20,C/C(=N/NS(=O)(=O)c1ccc(C)cc1C)c1c[nH]c2ccccc12,inactive: 1.74%
21,CNC(=S)N(Cc1cccs1)Cc1cc2cc(OC)c(OC)cc2[nH]c1=O,inconclusive: 42.4%
22,Cn1cnc(S(=O)(=O)Nc2cc(-c3ccc(Cl)cc3)nn2C)c1,inactive: -6.88%

row,SMILES,protection from apoptosis
1,CCOc1ccc(/C=N/Nc2ccc(Cl)nn2)c(O)c1,active: 119%
2,COc1ccc2c(C(=O)NCc3ccc4c(c3)OCO4)c(-c3ccc(S(C)(=O)=O)cc3)sc2c1,inconclusive: 73.3%
3,O=[N+]([O-])c1ccc(-c2nc3ccc([N+](=O)[O-])cc3[nH]2)cc1,inconclusive: 74.4%
4,CC1=C(C(=O)OCCNC(=O)c2ccccc2O)C(c2ccccc2[N+](=O)[O-])C(C(=O)OCC2CCCO2)=C(C)N1 (stereo not drawn),inconclusive: 74.3%
5,O=C(Oc1ccc(-c2cnc3ccccc3n2)cc1)c1cccc([N+](=O)[O-])c1,inactive: -32%
6,Cc1cc(NC(=O)CSc2nc(N)c(NC(=O)c3ccc(F)c(F)c3)c(=O)[nH]2)no1,inactive: -3.07%
7,COc1ccc(NC(=O)/C(Cl)=C(/Cl)S(=O)Cc2ccc(C)cc2)cn1 (stereo not drawn),active: 106%
8,CCC(CC)C(=O)c1c[nH]c(C(=O)NCc2ccccn2)c1,inconclusive: 51.8%
9,Cc1ccc(NC(=O)C2=C(c3ccccc3)S(=O)(=O)CCS2(=O)=O)cc1,inconclusive: 69.5%
10,COc1ccc2nc(N=Nc3ccc(O)c4ccccc34)sc2c1,inconclusive: 60.7%
11,CC(C)Cn1c(N)c(C(=O)COC(=O)Cc2cccc(C(F)(F)F)c2)c(=O)n(C)c1=O,inactive: -2.07%
12,N#Cc1ccc(-c2cn3c(n2)SCC3)cc1,inactive: 1.25%
13,COc1cc2c(cc1OC)C(NC(=O)C(F)(F)F)CNC2=O (stereo not drawn),inconclusive: 48.8%
14,Cc1cc(C(=O)N/N=C/c2cc(N=Nc3ccccc3)ccc2O)n[nH]1,active: 83.3%
15,CCCn1c(Nc2nc3ccccc3n2C)nc2ccccc21,active: 111%
16,Cc1ccc(NC(=O)c2c(O)c3ccccc3n(C)c2=O)nc1,inactive: -2.3%
17,O=C1CCCC2=C1C(c1ccccc1)C1C(=O)c3ccccc3C1=N2 (stereo not drawn),inconclusive: 47.8%
18,O=C1C=C(NCCN2CCOCC2)C(=O)c2cnccc21,active: 98%
19,O=C(CSc1ncnc2ccccc12)Nc1ccc2c(c1)OCO2,inactive: 1.77%
20,COc1ccccc1NC(=S)N=Nc1c(O)[nH]c2ccc(Br)cc12,inconclusive: 72.7%
21,CCOC(=O)c1[nH]c2c(c1C)C(=O)CC(c1ccc(OCC)c(OC)c1)C2 (stereo not drawn),inactive: 2.74%
22,COc1ccc(N2CC(C(=O)N3CCN(c4ccccc4F)CC3)CC2=O)cc1 (stereo not drawn),inconclusive: 51.1%
